Over roughly 33,000 sequences, “E-score (-0.5 to 0.5)” has its median near -0.043; the highest 2% begin near 0.37. This is one part of the list.
Biological target: T1, Upc2 (UniProt Q12151)
T1 sequence: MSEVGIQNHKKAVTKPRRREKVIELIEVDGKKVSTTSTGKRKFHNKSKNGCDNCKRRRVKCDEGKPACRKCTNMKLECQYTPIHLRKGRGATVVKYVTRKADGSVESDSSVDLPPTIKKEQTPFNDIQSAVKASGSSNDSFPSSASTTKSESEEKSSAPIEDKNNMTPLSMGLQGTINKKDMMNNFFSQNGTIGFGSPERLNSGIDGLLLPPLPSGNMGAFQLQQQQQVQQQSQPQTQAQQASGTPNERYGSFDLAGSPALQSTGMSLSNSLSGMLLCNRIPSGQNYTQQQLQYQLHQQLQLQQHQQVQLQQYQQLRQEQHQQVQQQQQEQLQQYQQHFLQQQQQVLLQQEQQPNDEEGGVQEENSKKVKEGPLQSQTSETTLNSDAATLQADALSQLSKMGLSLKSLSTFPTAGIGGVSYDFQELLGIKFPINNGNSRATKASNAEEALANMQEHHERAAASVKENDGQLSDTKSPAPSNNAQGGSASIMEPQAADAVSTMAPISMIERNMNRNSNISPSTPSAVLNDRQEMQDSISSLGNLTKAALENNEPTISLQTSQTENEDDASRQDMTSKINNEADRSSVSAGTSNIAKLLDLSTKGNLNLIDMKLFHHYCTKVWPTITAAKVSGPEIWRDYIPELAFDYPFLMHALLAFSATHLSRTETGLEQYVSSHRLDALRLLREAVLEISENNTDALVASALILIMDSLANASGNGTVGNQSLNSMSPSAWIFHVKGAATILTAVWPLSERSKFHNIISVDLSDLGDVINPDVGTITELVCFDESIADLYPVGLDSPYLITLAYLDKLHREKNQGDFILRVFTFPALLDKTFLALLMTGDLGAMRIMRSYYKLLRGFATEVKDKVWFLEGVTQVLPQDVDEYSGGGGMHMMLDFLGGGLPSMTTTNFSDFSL
Test: PBM E-score (8-mer binding enrichment) (E-score (-0.5 to 0.5)); higher = stronger / more preferred TF binding; most listed sequences are background and not binding sites
Details: protein concentration: 200 nM; construct: GST-full length
Procedure, shortened: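 Using PURExpress in vitro transcription/translation, GST-tagged yeast transcription factors were made in full-length or DNA-binding-domain form. These were applied at about 100-200 nM to double-stranded universal all-10-mer Agilent arrays, and bound protein was detected with fluorescent anti-GST. Scans were normalised with masliner before the Universal PBM Analysis Suite assigned E-scores to ungapped eight-base words pooled with their reverse complements.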

| Sequence | PBM E-score |
| --- | --- |
| AACTAAAT | -0.0165 |
| CCACTTTC | -0.0836 |
| GACGAAAA | 0.177 |
| AGTTAGTA | -0.0415 |
| ACTGCTAC | 0.0236 |
| AGCCGGCT | -0.314 |
| AGGATCTG | -0.176 |
| CTTAGCCC | -0.113 |
| AGCATCGG | -0.231 |
| GGTTTCCA | -0.228 |
| CGTTAGCA | 0.0714 |
| CGTTCGTA | 0.45 |
| ACGTACCG | 0.272 |
| GAATGATC | 0.0166 |
| AGGTACCT | -0.0876 |
| CCTGAATC | -0.167 |
| TATGGAGA | -0.157 |
| GCTAAGAA | 0.0999 |
| ACCATACA | -0.0345 |
| CGTAAGAG | 0.316 |
| GTTGTTAA | 0.0929 |
| CTTAGCAC | -0.0813 |
| GCTATAAA | 0.0876 |
| ACCCGTGG | -0.174 |
| ATCGATAA | 0.00669 |

| Sequence | PBM E-score |
| --- | --- |
| CAATATGG | -0.308 |
| AACCTACG | 0.0703 |
| GTTTTGGA | -0.0699 |
| CTCGACAA | -0.0801 |
| ACACGGAA | -0.0611 |
| CAGAGCCA | -0.101 |
| ATCCTTAC | -0.0381 |
| ATAGATGA | -0.0908 |
| CGGGCAAA | 0.0178 |
| AGGCTTTA | -0.0618 |
| ATGTTACA | -0.0859 |
| CCAGATTA | -0.131 |
| ACTAGTTC | -0.0523 |
| ACCCCTTG | -0.224 |
| ATATACAG | 0.116 |
| AAAAGTAC | 0.132 |
| GGTTAGTA | 0.0936 |
| GCATCGTA | 0.429 |
| AGTTCGGG | -0.0213 |
| GCAGTCTA | -0.216 |
| ATCTGCAG | -0.109 |
| GCAGCTAA | -0.156 |
| GAAATTAC | 0.113 |
| CGCAGTAA | -0.0453 |
| GCGAACGC | 0.158 |

| Sequence | PBM E-score |
| --- | --- |
| CAGCTTGC | -0.136 |
| CACTGTTC | -0.128 |
| TAAGTTCA | -0.047 |
| CTAGCAGC | -0.286 |
| CAAGCCGG | -0.204 |
| TCGACTCA | -0.0433 |
| ACGCCTAT | -0.0551 |
| AAGCTTTC | -0.00324 |
| CGCGACCG | 0.146 |
| GAGAGCGC | -0.164 |
| ACGGGCGG | -0.0925 |
| TCAGCAAA | 0.0629 |
| ATTTCCTA | 0.124 |
| AAGTTTCT | -0.00273 |
| ATCCGTCA | -0.129 |
| GGCAAAGA | 0.0516 |
| ACACGTCG | 0.0569 |
| GAGTGGCC | 0.0105 |
| AATGGTTC | 0.0645 |
| AGTGCGTG | -0.00031 |
| GACCGAAC | 0.105 |
| ATGAGACA | -0.0142 |
| GCATCGCC | -0.0273 |
| CAATAAGC | -0.0521 |
| AGTAGTAC | 0.182 |

| Sequence | PBM E-score |
| --- | --- |
| ATATGAGC | -0.119 |
| GGCATACC | -0.294 |
| AAGGTTAT | -0.0588 |
| AACCGAGT | 0.203 |
| CAAAGCTG | -0.115 |
| CCTGCGTA | 0.265 |
| AACTGTTA | 0.152 |
| GGCAGGGA | -0.152 |
| ACGCGACC | 0.151 |
| CAATCGCG | -0.0257 |
| TAACCCAA | 0.00963 |
| CGTCGAGC | -0.0913 |
| TCATGGCA | -0.0847 |
| CCCAATTC | 0.016 |
| AGTAAGGA | -0.098 |
| ATGACTTC | -0.0247 |
| CGCAAGCC | -0.0123 |
| ACTTTCCT | -0.267 |
| GACGGCAA | -0.163 |
| GTGACTTA | 0.0264 |
| ACGCCTGA | 0.146 |
| CATTTGGC | -0.176 |
| AAGGTAAG | -0.0634 |
| TATGCGCA | 0.0561 |
| GTTACAGA | -0.126 |

| Sequence | PBM E-score |
| --- | --- |
| ATCTCTCG | 0.0826 |
| CCCACGCC | -0.0387 |
| ATACGAAT | 0.459 |
| TCGATTCA | -0.0611 |
| CCTCATCA | -0.0689 |
| GTAAAGAA | 0.193 |
| CGAATGAC | 0.141 |
| CGTAGCTC | 0.194 |
| AAGAAGGC | -0.216 |
| CATTTAAG | -0.11 |
| GACGCCTC | 0.103 |
| GGGAATTA | -0.0613 |
| CACTCTAA | -0.215 |
| ACCGTTAC | 0.221 |
| GCAGTTAC | -0.0121 |
| CATTATAG | -0.0846 |
| GGGGTCTA | -0.168 |
| GTATCCCA | -0.079 |
| CACTACTA | -0.191 |
| ATTCGCAA | -0.00304 |
| AAAGGCAA | -0.142 |
| CACCCATG | -0.223 |
| ACAGAAAA | 0.0844 |
| AGATCATA | 0.0437 |
| CCGCAAGA | 0.0113 |

| Sequence | PBM E-score |
| --- | --- |
| AATATAGA | 0.0283 |
| AAACTCCT | -0.187 |
| GCATAGCA | 0.0496 |
| AGGTGCAC | -0.102 |
| AAGTTTAT | -0.0152 |
| GACCTTGC | 0.0484 |
| AAAAGTGC | -0.0156 |
| GAATCATA | -0.128 |
| CATCACTA | -0.183 |
| GTCATAAC | -0.108 |
| CCACCGGG | -0.167 |
| CATTTAAA | 0.0632 |
| CCGGTTTA | 0.168 |
| AGGCCAGA | -0.282 |
| ATTACTTA | 0.0288 |
| CTTATTTC | 0.0806 |
| CGTTACCA | 0.171 |
| CCGTACCA | 0.368 |
| AACCCGCG | 0.057 |
| AACATGTG | -0.0031 |
| CGGTGACA | -0.162 |
| CATAGCAC | -0.0714 |
| CCCCGACG | -0.0593 |
| CTAAACAG | -0.0266 |
| CTAGACGC | -0.0348 |

| Sequence | PBM E-score |
| --- | --- |
| CTAAAGAG | -0.0322 |
| CACTGTAC | 0.111 |
| CATAATGC | -0.128 |
| ACGTTGCT | 0.136 |
| GGCAGGAC | -0.157 |
| GCCTCCCA | -0.118 |
| GAACGACA | 0.437 |
| CACTACGA | 0.296 |
| GAAGCTGA | -0.151 |
| GGATTAGA | -0.181 |
| AGATAACG | 0.088 |
| GATTTACA | 0.015 |
| AGTTTTTG | -0.111 |
| GCACCGAC | -0.0498 |
| GGAAGTAA | -0.0533 |
| CGCTGGAA | -0.186 |
| GGTAATTA | 0.115 |
| GACATGAC | -0.101 |
| CCGAATTC | 0.0798 |
| AAGCTCTA | 0.0768 |
| ATCACGGG | -0.175 |
| CGACGGCA | 0.193 |

From the supplement of paper PMC3334620
